Common to all, as to assay: glycan array binding signal (z-score within array); higher = stronger binding
What all share (conditions): glycan notation: IUPAC condensed, linker removed

In experiment [1] the target is Gal(b1-4)GlcNAc(b1-2)[Gal(b1-4)GlcNAc(b1-6)]Man(a1-6)[Gal(b1-4)GlcNAc(b1-2)Man(a1-3)]Man(b1-4)GlcNAc(b1-4)[Fuc(a1-6)]GlcNAc. In a few lines: (§1)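 Columns mapping to the same glycan were averaged after glycan names were converted to IUPAC-condensed notation. The data come from 3228 arrays in the Consortium for Functional Glycomics database, limited to those with an available protein sequence. Binding is reported as a within-array Z-score averaged across arrays of one protein sequence and across linkers.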

Experiment [2] concerns the target Gal(b1-4)GlcNAc(b1-2)[Gal(b1-4)GlcNAc(b1-6)]Man(a1-6)[GlcNAc(b1-4)][Gal(b1-4)GlcNAc(b1-2)Man(a1-3)]Man(b1-4)GlcNAc(b1-4)GlcNAc. In a few lines:
as §1

The target in experiment [3] is Gal(b1-4)GlcNAc(b1-2)[Gal(b1-4)GlcNAc(b1-6)]Man(a1-6)[GlcNAc(b1-4)][Gal(b1-4)GlcNAc(b1-2)[Gal(b1-4)GlcNAc(b1-4)]Man(a1-3)]Man(b1-4)GlcNAc(b1-4)[Fuc(a1-6)]GlcNAc. In a few lines: as §1
For experiment [4], the target named is Gal(b1-4)GlcNAc(b1-3)Gal(b1-3)GalNAc. In a few lines:
as §1

For experiment [5], the target named is Gal(b1-4)GlcNAc(b1-3)Gal(b1-3)GlcNAc. Summed up: as §1
In experiment [6] the target is Gal(b1-4)GlcNAc(b1-3)Gal(b1-4)Glc. In a few lines:
as §1

Experiment [7] deals with Gal(b1-4)GlcNAc(b1-3)Gal(b1-4)GlcNAc. Summed up:
as §1

Experiment [8] has as its target Gal(b1-4)GlcNAc(b1-3)Gal(b1-4)GlcNAc(b1-2)Man(a1-3)[Gal(b1-4)GlcNAc(b1-3)Gal(b1-4)GlcNAc(b1-2)Man(a1-6)]Man(b1-4)GlcNAc(b1-4)GlcNAc. In a few lines:
as §1

Experiment [9] addresses Gal(b1-4)GlcNAc(b1-3)Gal(b1-4)GlcNAc(b1-2)Man(a1-3)[Gal(b1-4)GlcNAc(b1-3)Gal(b1-4)GlcNAc(b1-2)Man(a1-6)]Man(b1-4)GlcNAc(b1-4)[Fuc(a1-6)]GlcNAc. Summed up: as §1
The target in experiment [10] is Gal(b1-4)GlcNAc(b1-3)Gal(b1-4)GlcNAc(b1-2)[Gal(b1-4)GlcNAc(b1-3)Gal(b1-4)GlcNAc(b1-6)]Man(a1-6)[Gal(b1-4)GlcNAc(b1-3)Gal(b1-4)GlcNAc(b1-2)Man(a1-3)]Man(b1-4)GlcNAc(b1-4)GlcNAc. In a few lines: as §1
Experiment [11] deals with Gal(b1-4)GlcNAc(b1-3)Gal(b1-4)GlcNAc(b1-2)[Gal(b1-4)GlcNAc(b1-3)Gal(b1-4)GlcNAc(b1-6)]Man(a1-6)[Gal(b1-4)GlcNAc(b1-3)Gal(b1-4)GlcNAc(b1-2)Man(a1-3)]Man(b1-4)GlcNAc(b1-4)[Fuc(a1-6)]GlcNAc. Summed up: as §1
Experiment [12] has as its target Gal(b1-4)GlcNAc(b1-3)Gal(b1-4)GlcNAc(b1-3)Gal(b1-4)GlcNAc. Summed up:
as §1

Experiment [13] concerns the target Gal(b1-4)GlcNAc(b1-3)Gal(b1-4)GlcNAc(b1-3)Gal(b1-4)GlcNAc(b1-2)Man(a1-3)[Gal(b1-4)GlcNAc(b1-3)Gal(b1-4)GlcNAc(b1-3)Gal(b1-4)GlcNAc(b1-2)Man(a1-6)]Man(b1-4)GlcNAc(b1-4)GlcNAc. Summed up:
as §1

Experiment [14] addresses Gal(b1-4)GlcNAc(b1-3)Gal(b1-4)GlcNAc(b1-3)Gal(b1-4)GlcNAc(b1-2)Man(a1-3)[Gal(b1-4)GlcNAc(b1-3)Gal(b1-4)GlcNAc(b1-3)Gal(b1-4)GlcNAc(b1-2)Man(a1-6)]Man(b1-4)GlcNAc(b1-4)[Fuc(a1-6)]GlcNAc. In a few lines:
as §1

Experiment [15] concerns the target Gal(b1-4)GlcNAc(b1-3)Gal(b1-4)GlcNAc(b1-3)Gal(b1-4)GlcNAc(b1-2)[Gal(b1-4)GlcNAc(b1-3)Gal(b1-4)GlcNAc(b1-3)Gal(b1-4)GlcNAc(b1-6)]Man(a1-6)[Gal(b1-4)GlcNAc(b1-3)Gal(b1-4)GlcNAc(b1-3)Gal(b1-4)GlcNAc(b1-2)Man(a1-3)]Man(b1-4)GlcNAc(b1-4)[Fuc(a1-6)]GlcNAc. Summed up: as §1
The target of experiment [16] is Gal(b1-4)GlcNAc(b1-3)Gal(b1-4)GlcNAc(b1-3)Gal(b1-4)GlcNAc(b1-3)Gal(b1-4)GlcNAc(b1-2)Man(a1-3)[Gal(b1-4)GlcNAc(b1-3)Gal(b1-4)GlcNAc(b1-3)Gal(b1-4)GlcNAc(b1-3)Gal(b1-4)GlcNAc(b1-2)Man(a1-6)]Man(b1-4)GlcNAc(b1-4)GlcNAc. Summed up:
as §1

The target in experiment [17] is Gal(b1-4)GlcNAc(b1-3)Gal(b1-4)GlcNAc(b1-3)Gal(b1-4)GlcNAc(b1-3)Gal(b1-4)GlcNAc(b1-2)Man(a1-3)[Gal(b1-4)GlcNAc(b1-3)Gal(b1-4)GlcNAc(b1-3)Gal(b1-4)GlcNAc(b1-3)Gal(b1-4)GlcNAc(b1-2)Man(a1-6)]Man(b1-4)GlcNAc(b1-4)[Fuc(a1-6)]GlcNAc. In a few lines:
as §1

The target of experiment [18] is Gal(b1-4)GlcNAc(b1-3)Gal(b1-4)GlcNAc(b1-3)Gal(b1-4)GlcNAc(b1-3)Gal(b1-4)GlcNAc(b1-2)[Gal(b1-4)GlcNAc(b1-3)Gal(b1-4)GlcNAc(b1-3)Gal(b1-4)GlcNAc(b1-3)Gal(b1-4)GlcNAc(b1-6)]Man(a1-6)[Gal(b1-4)GlcNAc(b1-3)Gal(b1-4)GlcNAc(b1-3)Gal(b1-4)GlcNAc(b1-3)Gal(b1-4)GlcNAc(b1-2)Man(a1-3)]Man(b1-4)GlcNAc(b1-4)[Fuc(a1-6)]GlcNAc. Summed up: as §1
The target of experiment [19] is Gal(b1-4)GlcNAc(b1-3)Gal(b1-4)GlcNAc(b1-3)Gal(b1-4)GlcNAc(b1-3)Gal(b1-4)GlcNAc(b1-3)Gal(b1-4)GlcNAc(b1-2)Man(a1-3)[Gal(b1-4)GlcNAc(b1-3)Gal(b1-4)GlcNAc(b1-3)Gal(b1-4)GlcNAc(b1-3)Gal(b1-4)GlcNAc(b1-3)Gal(b1-4)GlcNAc(b1-2)Man(a1-6)]Man(b1-4)GlcNAc(b1-4)GlcNAc. Summed up: as §1
Experiment [20] addresses Gal(b1-4)GlcNAc(b1-3)Gal(b1-4)GlcNAc(b1-3)Gal(b1-4)GlcNAc(b1-3)Gal(b1-4)GlcNAc(b1-3)Gal(b1-4)GlcNAc(b1-2)Man(a1-3)[Gal(b1-4)GlcNAc(b1-3)Gal(b1-4)GlcNAc(b1-3)Gal(b1-4)GlcNAc(b1-3)Gal(b1-4)GlcNAc(b1-3)Gal(b1-4)GlcNAc(b1-2)Man(a1-6)]Man(b1-4)GlcNAc(b1-4)[Fuc(a1-6)]GlcNAc. Summed up: as §1
Experiment [21] deals with Gal(b1-4)GlcNAc(b1-3)Gal(b1-4)GlcNAc(b1-3)Gal(b1-4)GlcNAc(b1-3)Gal(b1-4)GlcNAc(b1-3)Gal(b1-4)GlcNAc(b1-2)[Gal(b1-4)GlcNAc(b1-3)Gal(b1-4)GlcNAc(b1-3)Gal(b1-4)GlcNAc(b1-3)Gal(b1-4)GlcNAc(b1-3)Gal(b1-4)GlcNAc(b1-6)]Man(a1-6)[Gal(b1-4)GlcNAc(b1-3)Gal(b1-4)GlcNAc(b1-3)Gal(b1-4)GlcNAc(b1-3)Gal(b1-4)GlcNAc(b1-3)Gal(b1-4)GlcNAc(b1-2)Man(a1-3)]Man(b1-4)GlcNAc(b1-4)[Fuc(a1-6)]GlcNAc. In a few lines:
as §1

In experiment [22] the target is Gal(b1-4)GlcNAc(b1-3)Gal(b1-4)GlcNAc(b1-3)Gal(b1-4)GlcNAc(b1-3)Gal(b1-4)GlcNAc(b1-3)Gal(b1-4)GlcNAc(b1-3)Gal(b1-4)GlcNAc(b1-2)Man(a1-3)[Gal(b1-4)GlcNAc(b1-3)Gal(b1-4)GlcNAc(b1-3)Gal(b1-4)GlcNAc(b1-3)Gal(b1-4)GlcNAc(b1-3)Gal(b1-4)GlcNAc(b1-3)Gal(b1-4)GlcNAc(b1-2)Man(a1-6)]Man(b1-4)GlcNAc(b1-4)GlcNAc. Summed up: as §1
Experiment [23] addresses Gal(b1-4)GlcNAc(b1-3)Gal(b1-4)GlcNAc(b1-3)GalNAc. In a few lines:
as §1

Some of the results follow.

B1: DrGal3 (Danio rerio) (protein)
chain: MDLSDALDAPPQQNNQQAGGPVWPGQPANPVWPGQPANPTWPGQPNQPAWPGQPNQQWPGQPGQPTAPGWPGPAPQTGPYGAPGQAPQVLTVPLDFPLQNGAYNKMLITINGEVKPNAKQFTVNLRRGNDIAFHINPRFSEGGKPVIVRNSMIGNNWGREERELPSFPFVPGKPFEMKILITDTEYKVAVNKSHLLEFKHRVFELNQITGLSIYNDVTLSTVNVETLQ
In the case of B1, the “glycan array binding signal (z-score)” value in experiment [1] is -0.212; in experiment [2], -0.222; in [3], -0.255; in [4] it was -0.153; in experiment [5] it was -0.196; in experiment [6], 0.327. Moreover, the “glycan array binding signal (z-score)” value in experiment [7] amounted to 0.587; in [8], 1.41; in [9], 2.07; in [10], 0.04; in [11] it was 1.7; in [12] it was 1.12. The “glycan array binding signal (z-score)” value came to 3.47 in experiment [13]; 4.37 in experiment [14]; 3.07 in [15]; 4.2 in [16]; 5.59 in [17]; 4.6 in [18]. Moreover, the “glycan array binding signal (z-score)” value in experiment [19] was 6.65; in experiment [20], 4.37; in experiment [21] it was 5.52; in [22] it was 5.72; in experiment [23], -0.046.

The values above are taken from the supplement of paper PMC8728848.
